Experimental data published in patent US20240252467A1, “TREATMENT OF MENTAL ILLNESS VIA ADMINISTRATION OF BUNTANETAP AND ANALOGUES THEREOF” (ANNOVIS BIO, INC., priority 2023, published 2024).

Key:
[1] = system: retrograde axonal transport of BDNF; settings: cited from earlier work; for flow and speed of axonal transport (FIG. 6): Down Syndrome nerve cell, treated for 48 hours
clinical = settings: human, brain
APP/PS1 tg mice = settings: hippocampus of APP/PS1 tg mice; cited from earlier work
mice = test: Elevated Plus-Maze Test; assay type: in vivo; settings: 25 mg/kg p.o. once daily Day 1-10, 60 minutes before test
Method: A number of Elevated Plus-Maze Tests described by Handley and Mithani (Naunyn. Schmied. Arch. Pharmacol., 327, 1-5, 1984) were conducted in mice. The test is based on the premise that mice avoid open spaces (the open arms of an elevated plus-maze). Anxiolytics increase exploratory activity in the open arms, as indicated by increased time spent on the open arms and/or by increased % open-arm entries.
The maze consisted of 4 arms of equal length and width (14×5 cm) arranged in the form of a plus sign (+). Two opposite arms were enclosed by 12 cm high walls (closed arms). The 2 other arms had no walls (open arms). The maze is raised approximately 60 cm above the floor. A mouse was placed in the center of the plus-maze and left to explore for 5 minutes.
Buntanetap was a therapeutic agent. […] Clobazam, a therapeutic agent with confirmed anxiolytic activity, was used to validate the test.

APP and its fragments [2] = test: APP and its fragments in hippocampus of APP/PS1 transgenic AD mice; assay type: in vivo
Description: FIG. 2, APP in vivo. […] GAPDH and Synaptophysin were loading controls. FIG. 2 also includes a collection of graphs showing relative density of APP plotted against control and time after buntanetap treatment; relative density of CTFβ plotted against control and time after buntanetap treatment; relative density of CTFα plotted against control and time after buntanetap treatment; Aβ42 levels in brain tissue plotted against control and time after buntanetap treatment; and Aβ40 levels in brain tissue plotted against control and time after buntanetap treatment. Finally, FIG. 2 also includes a Western blot showing levels of APP, NSB, CTFβ, and CTFα after buntanetap treatment over time (minutes).

glaucoma rats = settings: rat acute glaucoma model, eye, cited from earlier work
[3] = system: early AD patients, early PD patients; settings: cited from earlier work
[4] = system: early AD patients, early PD patients; test: Phase 2a double-blind, placebo-controlled study in early AD and early PD patients; assay type: in vivo, human
αSYN [5] = settings: transgenic Parkinson's animals, brain and gut; cited from earlier work
αSYN [6] = settings: neuroblastoma cells; cited from earlier work
TBI rats = settings: cited from earlier work
[7] = system: fl-APP, tau phosphorylation, Rab5, pTrkB, pAkt, pERK, pCREB; settings: cited from earlier work
tau [8] = settings: Human tau mice; unpublished observation, Peter Davies Laboratory; cited from earlier work
[9] = system: sAPPα, sAPPβ, Aβ42, Tau (total and phosphorylated), αSYN and inflammatory markers in CSF; settings: cited from earlier work
[10] = system: sAPPα, sAPPβ, Aβ42, Tau (total and phosphorylated), αSYN and inflammatory markers in CSF; settings: MCI subjects, 10 days of administration
tau [11] = settings: unpublished observation, Peter Davies Laboratory; cited from earlier work
APP/PS1 mice = test: Fear Conditioning Test; assay type: in vivo; settings: 1 and 10 mg/Kg
Description: Sensory perception of electric foot shock was examined in different groups of mice through the threshold assessment test. APP/PS1 mice (i.e., the heterozygous double transgenic mice expressing both human APP (K670N:M671L) and human PS1 (M146L)) and WT mice (i.e., the Wild type, a normal healthy mouse with no deficiencies) were used.
The animals were placed in the conditioning chamber and the electric current (0.1 mA for 1 sec) was increased at 30 sec intervals from 0.1 mA to 0.7 mA.
Then, fear conditioning (FC) training was performed. Mice was placed in a conditioning chamber for 2 min before the onset of a tone (Conditioned Stimulus (CS), 30 sec, 85 dB sound at 2800 Hz). In the last 2 sec of the CS, mice was given a 2 sec, 0.7 mA mild foot shock (Unconditioned Stimulus, (US)) through the bars of the floor. After the US, the mice was left in the chamber for another 30 sec. Freezing behavior, defined as the absence of movements except for that needed for breathing, was scored using Freezeview software (Med Associates, St. Albans, VT). Contextual fear learning, a type of memory for which hippocampal function is indispensable, was evaluated 24 hrs after training by measuring freezing responses for 5 min in the same chamber where the mice were trained. Cued fear learning, a type of memory that depends on amygdala function, was evaluated 24 hrs after contextual testing. […]

[12] = Side effects / toxic dose in humans; assay type: in vivo, human; settings: single oral doses above about 120 mg/day and multiple oral doses of up to 240 mg/day
APP and its fragments [13] = settings: APP/PS1 transgenic mice; cited from earlier work
APP [14] = settings: neuroblastoma cells; cited from earlier work
APP [15] = test: APP levels in SH-SY-5Y human neuroblastoma cells (Western blot); assay type: cell-based; settings: SH-SY-5Y cells, 0, 0.1, 1, 5 and 10 μM
Method: On the left is a Western blot showing buntanetap inhibition of APP in relation to Actin standard at concentrations of 0, 0.1, 1, 5 and 10 μM and a graph showing the same data plotted for statistical analysis purposes.

Structure (SMILES): CN1CC[C@]2(C)c3cc(OC(=O)Nc4ccccc4)ccc3N(C)C12 (stereo partly drawn) [buntanetap, (3aR)-1,3a,8-trimethyl-1,2,3,3a,8,8a-hexahydropyrrolo[2,3-b]indol-5-yl phenylcarbamate]
- flow and speed of axonal transport (FIG. 6) [1]: full recovery of axonal transport
- flow and speed of axonal transport (FIG. 6) ([1]; listed as butanetap): improves the flow and speed of axonal transport
- retrograde axonal transport of BDNF in cortical neurons ([1]; Ts65Dn cortical neurons, 5 μM for 48 hours): rescued the deficit
- Kp (clinical): ~8
- synaptic transmission (APP/PS1 tg mice): Normalized impaired synaptic transmission
- open arm exploration (FIG. 8A to 8E) (mice): entered the high open arm of the maze more often, stayed longer and traveled longer distances
- APP and its fragments in hippocampus (FIG. 2) (APP and its fragments [2]; APP/PS1 transgenic AD mice): reduced APP and its fragments in hippocampus
- duration of reduction of APP and all related peptides in hippocampus (APP and its fragments [2]; after the last dose): at least 9 hours
- protection of nerve cells (glaucoma rats): protected nerve cells
- protection of nerve cells (glaucoma rats; listed as Butanetap): protects nerve cells from dying
- Biomarker data ([3]; AD and PD cohorts): a trend in lowering levels of neurotoxic proteins and inflammatory factors and improving axonal integrity ad synaptic function
- ADAS-Cog11 and WAIS coding ([3]; AD patients, 80 mg QD): statistically significant improvements
- MDS-UPDRS and WAIS coding ([3]; PD patients, 5-80 mg QD): statistically significant improvements
- Safety and tolerability ([3]; doses up to 80 mg QD, AD and PD patients): well tolerated
- crossing of the blood brain barrier ([4]; AD and PD patients, once daily dose): crossed the blood brain barrier
- cognition as measured by ADAS-Cog11 and WAIS coding speed ([4]; AD patients, 80 mg QD, statistical significance versus baseline but not placebo): improved cognition
- motor function as measured by MDS-UPDRS (Part II, III, IV and total) ([4]; PD patients, 5, 10, 20, 40, 80 mg QD): improved at all doses motor function
- αSYN in vivo (αSYN [5]): lowers αSYN
- αSYN in vitro (αSYN [6]): lowers αSYN
- inflammation (TBI rats; rat brain after TBI): lowered inflammation
- dopaminergic neuropathology and working memory (TBI rats; rat model of traumatic brain injury): improves dopaminergic neuropathology and working memory
- synaptic transmission (TBI rats; rat striatum after TBI): Normalized impaired synaptic transmission
- protection of nerve cells (TBI rats; rat substantia nigra after TBI): protected nerve cells
- levels of pTrkB, pAkt, pERK, and pCREB ([7]; Ts65Dn brains): restored the levels
- fl-APP ([7]; Ts65Dn mice, 50 mg/kg/d i.p.): significantly reduced fl-APP
- tau (two bands quantified together), vehicle versus buntanetap ([7]; Ts65Dn mice, 50 mg/kg/d i.p.): no statistically significant difference
- phosphorylation of tau on Thr231 and PHF1 epitopes ([7]; Ts65Dn mice, immunoblotting): reduced phosphorylation of tau
- activity of Rab5 ([7]; in vivo, Ts65Dn mice): restored normal activity of Rab5
- tau in vivo (tau [8]): lowers tau
- levels of APP, Tau, and αSYN in CSF ([9]; MCI subjects, 4×60 mg/day): normalized
- CSF levels of sAPPα, sAPPβ, t-tau, p-tau, and specific inflammatory markers ([9]; MCI subjects): significantly lowered
- inflammation ([9]; human CSF of MCI subjects): lowered inflammation
- duration of effect in lowering neurotoxic proteins and inflammation ([9]; sampling period after the last dose): ≥ 12 h
- aggregating proteins (APP/Aβ, tau/phospho-tau, αSYN) in CSF (FIG. 3) [10]: normalized these aggregating proteins in CSF
- tau in vitro (tau [11]): lowers tau
- fear (freezing) (APP/PS1 mice): had less fear
- side effects (e.g., nausea and vomiting) [12]: increased incidence of side effects
- levels of APP and all its fragments (APP and its fragments [13]): lowers levels of APP and all its fragments
- levels of APP in vitro (APP [14]): lowers levels of APP
- APP in relation to Actin standard (FIG. 1) (APP [15]): lowers APP in vitro in a dose-dependent manner

Read-outs that look alike come from different tables or passages of the source.
